Data taken from PubChem BioAssay AID1745853 (National Center for Advancing Translational Sciences (NCATS), 2022).
This is one part of the list. These are further read-outs of the screen, such as a control signal, another cell line or another target. No call is given for them. Square brackets hold non-standard residues; d marks the D form. Peptide text beside a SMILES is read from it. ξ: configuration not given here. ξLac(3-iPr) = CC(C)CC(O)C(=O)O; NMeV = CN[CH](C(=O)O)C(C)C; βAla = NCCC(=O)O

Experiments:
Assay in all cases: Primary Screen for Target Class Profiling of Small Molecule Inhibitors of Methyltransferases
[1] = target: Glycine N-methyltransferase (Homo sapiens) (UniProt Q14749); conditions: purified enzyme, MTase-Glo SAH luminescence; measured here: GNMT inhibition; at 40 µM; stronger effect = lower value
In short: (§1)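 Each enzyme was reacted with SAM and its substrate, with compounds tested once at 40 uM; SAH formed was read by MTase-Glo luminescence.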

[2] = target: Guanidinoacetate N-methyltransferase (Homo sapiens) (UniProt Q14353); conditions: purified enzyme, MTase-Glo SAH luminescence; measured here: GAMT inhibition; at 40 µM; stronger effect = lower value
In short: as §1

[3] = target: Histamine N-methyltransferase (Homo sapiens) (UniProt P50135); conditions: purified enzyme, MTase-Glo SAH luminescence; measured here: HNMT inhibition; at 40 µM; stronger effect = lower value
In short: as §1

[4] = target: Nicotinamide N-methyltransferase (Homo sapiens) (UniProt P40261); conditions: purified enzyme, MTase-Glo SAH luminescence; measured here: NNMT inhibition; at 40 µM; stronger effect = lower value
In short: as §1

[5] = target: Phenylethanolamine N-methyltransferase (Homo sapiens) (UniProt P11086); conditions: purified enzyme, MTase-Glo SAH luminescence; measured here: PNMT inhibition; at 40 µM; stronger effect = lower value
In short: as §1
On the % scale 0 is the no-effect control and ±100 the full control effect.

| SMILES | activity change, negative = inhibition [1] [%] | activity change, negative = inhibition [2] [%] | activity change, negative = inhibition [3] [%] | activity change, negative = inhibition [4] [%] | activity change, negative = inhibition [5] [%] |
| --- | --- | --- | --- | --- | --- |
| COc1ccc(CN2Cc3[nH]nc(-c4cnc(OC)nc4)c3CC2=O)cc1 | -6.21 | -2.84 | -4.48 | -9.3 | -25.6 |
| COc1ccc(N2C(=O)c3cc(-c4ccccc4)nn3CC2(C)C(=O)NCc2ccccc2)cc1 (stereo not given) | -4.39 | 5.44 | 0.833 | -2.1 | -1.18 |
| CCC(C)/C=C(C)/C=C/C1=CC2=C(Cl)C(=O)C(C)(O)C(=O)C2(O)C(OC)O1 (stereo not given) | 0 | 8.29 | 8.16 | -6.02 | 3.84 |
| COc1cc(O)c(C(=O)O)c(CCc2ccccc2)c1 | -0.581 | -7.6 | -1.39 | -27.3 | -3.77 |
| CNC(=O)[C@@H]1C[C@H](n2cc(-c3ccc(CN4CC[C@@H](O)C4)cc3)nn2)CN1 | -3.1 | 2.38 | -0.451 | -4.03 | -3.37 |
| CCOc1ccc(-n2c([C@@H](C)N(Cc3cccnc3)C(=O)Cc3ccc(OC(F)(F)F)cc3)nc3ncccc3c2=O)cc1 | -2.45 | 17.7 | 1.54 | -10.5 | 0.107 |
| NC(N)=NC(=O)c1nc(Cl)c(N)nc1N | -4.71 | 7.13 | 4.26 | -7.09 | -1.84 |
| CC1CCCC(NC(=O)C2(C)Cn3c(cc4occc43)C(=O)N2Cc2ccco2)C1C (stereo not given) | 1.82 | -30.9 | 0.95 | -1.44 | -2.6 |
| CCOC(=O)C1CCN(S(=O)(=O)c2ccc3c(c2)n(C)c(=O)n3C)CC1 | 12.5 | 0 | 6.91 | 2.82 | 1.74 |
| C/C=C(\C)C(=O)OCC1OC(OC2OC(CO)C(O)C(O)C2O)C(O)C(O)C1O (stereo not given) | 4.89 | 4.93 | 10.2 | -6.5 | -0.817 |
| CC(C)CCNC(=O)c1cc2n(n1)CC(C)(C(=O)NC1CCCC1)N(C)C2=O (stereo not given) | 2.62 | 2.86 | -0.73 | -0.14 | 1.01 |
| COCCNC(=O)C[C@@H]1C[C@@H](C(C)C)[C@H](CNC(=O)c2cnccn2)C=C1C | -7.29 | -5.24 | -1.85 | -11.2 | 7.24 |
| CC1CCCC(NC(=O)C2(C)Cn3c(cc4sccc43)C(=O)N2Cc2cccs2)C1C (stereo not given) | -1.65 | 3.54 | -1.49 | -11.3 | -0.925 |
| Nc1ncnc2c1ncn2[C@H]1O[C@@H](C(=O)N2CCN(CC(=O)Nc3cccc4c3CNC4=O)CC2)[C@H](O)[C@@H]1O | -74.4 | -13.8 | -9.77 | -21.3 | -26.2 |
| CC[C@H]1OC(=O)[C@H](C)[C@@H](O[C@H]2C[C@@](C)(OC)[C@@H](O)[C@H](C)O2)C(C)[C@@H](O[C@@H]2O[C@H](C)C[C@H](N(C)C)[C@H]2O)[C@](C)(O)C[C@@H](C)CN(C)[C@H](C)[C@@H](O)[C@]1(C)O (stereo not given in full) | -1.07 | 2.97 | 8.24 | -13.3 | 2.07 |
| CCN1C(=O)c2cc3ccccc3n2CC1(C)C(=O)NCC(=O)NCc1cccc(F)c1 (stereo not given) | -12.3 | -1.28 | -10.7 | -12.5 | -9.14 |
| CC(=O)N1CCC([C@@H]2CN(Cc3cccnc3)C[C@H]2CO)CC1 | -1.92 | 1.97 | 0.602 | -2.99 | -1.34 |
| O=C(c1cccc([N+](=O)[O-])c1)N1CCc2c(c3ccccc3n2CC2CC2)C1 | -15.3 | -1.27 | -9.41 | -7.44 | -0.85 |
| O=C(Cc1ccccc1)N1CCCC1c1nc(CCOCC2CC2)no1 (stereo not given) | -2.47 | -0.469 | -0.721 | -9.35 | -1.54 |

| SMILES | activity change, negative = inhibition [1] [%] | activity change, negative = inhibition [2] [%] | activity change, negative = inhibition [3] [%] | activity change, negative = inhibition [4] [%] | activity change, negative = inhibition [5] [%] |
| --- | --- | --- | --- | --- | --- |
| Cc1cc(OC2CN([S+](=O)([O-])c3cccs3)C2)ccc1F | -11.6 | -15.4 | -36.3 | -24.3 | -20.7 |
| COc1ccccc1OCCNC(=O)c1cn2ccnc(-c3ccc(C)cc3)c2n1 | -3.1 | -8.02 | -1.23 | -7.17 | 2.6 |
| CC(=O)NC1(C)CCN(Cc2cnc(-c3ccc4c(ccn4C)c3)s2)CC1 | -9.25 | -10.2 | -8.48 | -16.8 | -13.5 |
| CCCNC(=O)N1CCOC[C@H](Oc2ccc(OC)cc2)C1 | -2.55 | -5.84 | -14.9 | -17.5 | -7.71 |
| CCCC1c2cccn2CCN1C(=O)Nc1ccc(C)cc1Cl (stereo not given) | 1.48 | 1.25 | -32.6 | 1.14 | 10.1 |
| Cc1ccc(Cn2c(=O)c3ccccc3n3c(=O)n(CC(=O)Nc4ccc(C)cc4Cl)nc23)cc1 | 3.97 | 0 | 8.57 | 5.54 | 4.13 |
| COCCNC(=O)C1CCc2sc(C(=O)N(C)C)cc2C1 (stereo not given) | -4.92 | -2.04 | -0.812 | -1.98 | 1.01 |
| c1ccc(CN2CCC(Cc3ccc(CN4CCCC4)cc3)CC2)nc1 | -11.9 | -3.05 | -49.4 | -4.84 | -38.3 |
| CC1(C(=O)NCc2ccccc2)Cn2c(nc3ccccc32)C(=O)N1Cc1ccccc1Cl (stereo not given) | -0.3 | 5.35 | 2.19 | 0.119 | -0.658 |
| Brc1cccc(-c2nnn3c2nc(NCc2ccccc2)c2ccccc23)c1 | -4.64 | -3.57 | -12.6 | -11.4 | -13.9 |
| Cn1c(=O)c2ccc(C(=O)NC3CCCC3)cc2n2c(=O)n(CC(=O)Nc3ccc(Cl)cc3)nc12 | 1.47 | -1.04 | 2.42 | -5.49 | -1.29 |
| CC(=O)O[C@@H]1[C@@H](O)[C@H](C)O[C@@H](O[C@H]2[C@@H]3C=CO[C@@H](O[C@@H]4O[C@H](CO)[C@@H](O)[C@H](O)[C@H]4O)[C@@H]3[C@@]3(CO)O[C@@H]23)[C@@H]1OC(=O)/C=C/c1ccccc1 | 0.814 | 2.19 | 3.3 | -8.13 | -1.02 |
| CC1(C(=O)NCc2ccccc2)Cn2c(ccc2-c2ccco2)C(=O)N1Cc1ccccc1F (stereo not given) | 1.04 | 0 | 5.4 | 0.265 | -0.403 |
| Cc1ccoc1C(=O)N1CCc2c(nc(-c3cccnc3)nc2N(C)C)C1 | -16.7 | -6.63 | -9.65 | -43.8 | -3.86 |
| CC1(C(=O)NC2CCCC2)Cn2c(c(-n3cccc3)c3ccccc32)C(=O)N1Cc1cccs1 (stereo not given) | -1.58 | 1.08 | -3.41 | -12.9 | -3.05 |
| CC(C)c1noc(C2CCN(c3ncnc(Nc4ccc(S(C)(=O)=O)cc4F)c3[N+](=O)[O-])CC2)n1 | -1.35 | -8.92 | -1.06 | -26 | -12.4 |
| CC(C)CC1OC(=O)C2CCCN2C(=O)CCNC(=O)C(Cc2ccccc2)NC(=O)C(C(C)C)N(C)C(=O)C(C(C)C)N(C)C1=O (stereo not given) (cyclo([ξLac(3-iPr)][NMeV][NMeV]F[βAla]P); configuration not given here) | 1.55 | -2 | 1.84 | -15.6 | 0.474 |
| CC(NC(=O)c1ccccc1N)C(=O)O (stereo not given) | 2.75 | 1.81 | 11 | -11.7 | -6.19 |
| CCCn1c(=O)c2ccc(C(=O)NC3CCCC3)cc2n2c(=O)n(Cc3ccc(C)cc3)nc12 | -3.27 | 0.433 | -3.03 | -11.9 | -8.21 |

| SMILES | activity change, negative = inhibition [1] [%] | activity change, negative = inhibition [2] [%] | activity change, negative = inhibition [3] [%] | activity change, negative = inhibition [4] [%] | activity change, negative = inhibition [5] [%] |
| --- | --- | --- | --- | --- | --- |
| COc1ccc2[nH]c(CNc3cc(C4CC(N)C4)nc(C)n3)cc2c1 (stereo not given) | -23 | -8.47 | -67 | -58.8 | -34.8 |
| CC(C)c1ccc(NS(=O)(=O)c2ccc3[nH]c(=O)[nH]c3c2)cc1 | -1.62 | 4.02 | -2.86 | -12.1 | -25.2 |
| CC(O)CCNS(=O)(=O)c1ccc2c(c1)CN(C(=O)c1ccon1)CC2 (stereo not given) | -5.18 | -8.01 | -3.94 | -16.3 | -13.1 |
| COc1ccc(CN2CCN(C(=O)[C@H]3CCC[C@@H](O)C3)CC2=O)cc1 | -0.03 | 2.6 | 2.48 | 0.672 | -15 |
| Cn1cnc(S(=O)(=O)NCCc2ccc(Cl)cc2)c1 | -1.03 | 3.18 | 6.42 | 0.406 | 5.26 |
| COc1ccc(S(=O)(=O)N2CCCC(CN3CCOCC3)CC2)cc1 (stereo not given) | 4.12 | 0.169 | 11.1 | 2.7 | 7.69 |
| CCCCN1C(=O)c2cc(C(=O)Nc3cc(F)ccc3F)nn2CC1(C)C(=O)NC1CCCC1 (stereo not given) | 7.46 | 3.77 | 9.07 | 7.64 | 4.9 |
| Cc1c(Cl)cccc1N1C(=O)c2cc3sccc3n2CC1(C)C(=O)NC1CCCC(C)C1C (stereo not given) | 2.48 | -4.81 | 3.32 | 3.25 | 3.08 |
| Cc1ccc(C)c(N2C(=O)c3cc4occc4n3CC2(C)C(=O)NC2CCC(C)CC2)c1 (stereo not given) | 0.339 | 0 | 0.843 | 7.12 | 1.83 |
| C[C@@H]1O[C@@H](O[C@H]2[C@H](O)[C@@H](C(=O)O)O[C@@H](O[C@H]3CC[C@@]4(C)C(CC[C@]5(C)C4CC=C4C6CC(C)(C)CC[C@]6(C(=O)O)CC[C@]45C)C3(C)C)[C@@H]2O[C@@H]2OC[C@@H](O)[C@H](O)[C@H]2O)[C@H](O)[C@H](O)[C@H]1O (stereo not given in full) | -4.21 | -1.74 | 2.56 | -11 | -0.239 |
| CC1CCC(NC(=O)C2(C)Cn3c(ccc3-c3ccco3)C(=O)N2CC(C)c2ccccc2)CC1 (stereo not given) | -1.07 | 0 | 3.23 | -3.92 | -1.59 |
| CCN(CC)CC(=O)Nc1c(C)cccc1C | 7.15 | 16.5 | 9.18 | 0.137 | 6.47 |
| CC1(C)[C@H](Cc2cc(COc3ccccc3)on2)C[C@@H]1NC1CCC1 | -5.51 | -7.57 | -23.5 | -15.4 | -9.57 |
| CN1C(=O)CS(=O)C12CCN(C(=O)C1(c3ccccc3)CC1)CC2 (stereo not given) | 0.608 | 0.916 | -1.12 | -3.54 | -3.13 |
| COCCCN1C(=O)c2cc3sccc3n2CC1(C)C(=O)NC1CCCCCC1 (stereo not given) | -2.14 | 4.5 | -1.42 | -1.62 | -0.186 |
| CCC(C)(Oc1ccc(C2(c3ccc(OC(C)(CC)C(=O)O)cc3)CCCCC2)cc1)C(=O)O (stereo not given) | -9.36 | -16.2 | 1.07 | -26.1 | -4.86 |
| CCOC(=O)c1cnc2ccc(Br)cc2c1Nc1ccc(C(C)=O)cc1 | -14.6 | 4.72 | 2.08 | -4.89 | -1.85 |
| C[C@@H](O[C@H]1OCCN(Cc2nn(P(=O)(O)O)c(=O)[nH]2)[C@H]1c1ccc(F)cc1)c1cc(C(F)(F)F)cc(C(F)(F)F)c1 | 1.28 | 3.85 | 2.45 | -14.1 | -4.29 |
